“And” between values parts separate entries of the source, which are not always exact repeats. Identical values can stand only once. This is one part of the list. Further columns of the screen follow, without active or inactive calls.
Columns and labels:
Assay in all cases: Primary Screen for Target Class Profiling of Small Molecule Inhibitors of Methyltransferases
[1] = target: Glycine N-methyltransferase (Homo sapiens) (UniProt Q14749); conditions: purified enzyme, MTase-Glo SAH luminescence; measured here: GNMT inhibition; at 40 µM; stronger effect = lower value
Description: (§1) PI: Matthew D. Hall Ph.D. and Quinlin M. Hanson Ph.D.
(§2) National Center for Advancing Translational Sciences (NCATS)
(§3) National Institute of Health (NIH), Rockville, MD
(§4) Target class profiling (TCP) is a chemical biology approach amenable to investigating understudied biological targets. TCP is achieved by developing a generalizable assay platform and applying it to screen a curated set of compound libraries against representative members of a target class. Small molecule methyltransferases (SMMTase) are a subclass of methyltransferase that act on metabolites to modulate signaling pathways, metabolize xenobiotics, or balance the available methyl pool. We screened four curated libraries totaling 27,574 unique compounds against the SMMTases nicotinamide N-methyltransferase (NNMT), phenylethanolamine N-methyltransferase (PNMT), histamine N-methyltransferase (HNMT), glycine N-methyltransferase (GNMT), catechol O-methyltransferase (COMT), and guanidinoacetate N-methyltransferase (GAMT). The data generated by this TCP can be leveraged for informed tool molecule development. For example, in the associated publication we identified a chemotype of HNMT-selective inhibitors. Additionally, we identified a putative SMMTase-selective inhibitor with potential as a tool molecule for studying broader methyltransferase biology.
(§5) High-through put screening assays were developed at the National Center for Advancing Translational Science (NCATS) for the enzymes NNMT, PNMT, HNMT, GNMT, COMT, and GAMT. Enzymatic activity was measured as a function of SAM cofactor conversion using the MTase Glo kit (Promega) for all enzymes. All assays were performed in 1536-well format with substrates and SAM concentrations at KM values. Enzyme concentration and assay timing were optimized for 10-20% SAM conversion. Initial screening of 27,574 compounds was done as single-point assays using the highest compound concentration (40 uM). […] These compounds were replated in 11-point dose response and assayed against NNMT, PNMT, HNMT, GNMT, COMT, GAMT, and a counter-assay. The IC50 and efficacy (maximal response) values were determined for each dose-response curve. These values are also accounted for in the area under the curve (AUC) values.
(§6) PROTOCOL TABLE (as described by Inglese J, Shamu CE and Guy RK. 2007)
(§7) SEQUENCE No. (e.g., 1, 2, 3, etc.); […] (e.g., Cells, Incubation, Reagent, etc.); VALUE; DESCRIPTION.
(§8) 1; Reagent; 2 uL; SMMTase Enzyme (2x) in reaction buffer, columns 1- 48.
(§9) 2; Reagent; 1 uL; SAM (4x) in reaction buffer, columns 1-48.
(§10) 3; Controls; 23 nL; DMSO in column 4; sinefungin in DMSO (0 uM - 40 uM) in 7-point 1:2 dilution series (n = 2) in column 2.
(§11) 4; Compounds; 23 nL; Columns 5-48.
(§12) 5; Reagent; 1 uL; Substrate (4x) in reaction buffer, columns 2-48.
(§13) 6; Time; 20-30 min; Incubation.
(§14) 7; Reagent; 1 uL; MTase-Glo reagent (5X), columns 1-48.
(§15) 8; Time; 30 min; Incubation.
(§16) 9; Reagent; 5 uL; MTase-Glo Detection reagent, columns 1-48.
(§17) 10; Time; 30 min; Incubation, luminescence evolution.
(§18) 11; Detection; Luminescence; ViewLux uHTS Microplate Imager (PerkinElmer).
(§19) NOTES (numbers refer to Sequence numbers above)
(§20) 1, 2, 5. White Medium Binding Greiner 1536-well plates (Cat #789175-F, Greiner Bio-One, Monroe, NC); Reaction buffer: 50 mM Tris, pH 8.0, 3 mM MgCl2, 1 mM EDTA, 50 mM NaCl, 1 mM DTT, and 0.1 mg/mL BSA. Evaporation was prevented by covering assay plates with metal lids containing holes to allow gas diffusion.
(§21) 1. Six SMMTase were profiled: HNMT, GNMT, PNMT, COMT, NNMT, GAMT
(§22) 5. The corresponding substrate was used for each enzyme: HNMT - 5.3 uM Histamine; GNMT - >500 uM Glycine; PNMT - 16.2 uM Norephinephrine; COMT - 13.7 uM Norephinephrine; NNMT - 3.8 uM Nicotinamide; GAMT - 2.5 uM Guanidinoacetate.6, 8, 10. Room temperature
(§23) 6. Final reaction conditions: 10 nM COMT, 5 uM SAM, 15 uM norepinephrine, 50 mM Tris, pH 8.0, 3 mM MgCl2, 1 mM EDTA, 50 mM NaCl, 1 mM DTT, and 0.1 mg/mL BSA; refer to tables 2 and S1 for specific timing.
8. […]

[2] = target: Guanidinoacetate N-methyltransferase (Homo sapiens) (UniProt Q14353); conditions: purified enzyme, MTase-Glo SAH luminescence; measured here: GAMT inhibition; at 40 µM; stronger effect = lower value
Description: as §1, §2, §3, §4, §5, §6, §7, §8, §9, §10, §11, §12, §13, §14, §15, §16, §17, §18, §19, §20, §21, §22, §23
8. […]

[3] = target: Histamine N-methyltransferase (Homo sapiens) (UniProt P50135); conditions: purified enzyme, MTase-Glo SAH luminescence; measured here: HNMT inhibition; at 40 µM; stronger effect = lower value
Description: as §1, §2, §3, §4, §5, §6, §7, §8, §9, §10, §11, §12, §13, §14, §15, §16, §17, §18, §19, §20, §21, §22, §23
8. […]

[4] = target: Nicotinamide N-methyltransferase (Homo sapiens) (UniProt P40261); conditions: purified enzyme, MTase-Glo SAH luminescence; measured here: NNMT inhibition; at 40 µM; stronger effect = lower value
Description: as §1, §2, §3, §4, §5, §6, §7, §8, §9, §10, §11, §12, §13, §14, §15, §16, §17, §18, §19, §20, §21, §22, §23
8. […]

[5] = target: Phenylethanolamine N-methyltransferase (Homo sapiens) (UniProt P11086); conditions: purified enzyme, MTase-Glo SAH luminescence; measured here: PNMT inhibition; at 40 µM; stronger effect = lower value
Description: as §1, §2, §3, §4, §5, §6, §7, §8, §9, §10, §11, §12, §13, §14, §15, §16, §17, §18, §19, §20, §21, §22, §23
8. […]
On the % scale 0 is the no-effect control and ±100 the full control effect.

| SMILES | activity change, negative = inhibition [1] | activity change, negative = inhibition [2] | activity change, negative = inhibition [3] | activity change, negative = inhibition [4] | activity change, negative = inhibition [5] |
| --- | --- | --- | --- | --- | --- |
| O=C(CCCN1CCC2(CC1)C(=O)NCN2c1ccccc1)c1ccc(F)cc1 | 2.33% | 13.1% | -17.1% | -2.8% | 2.46% |
| COC[C@H]1OC(=O)c2coc3c2[C@@]1(C)C1=C(C3=O)C2CCC(=O)[C@@]2(C)C[C@H]1OC(C)=O (stereo not given in full) | -31.7% and -6.07% | 7.39% and 0.561% | 1.07% and 1.52% | -1.68% and -10.5% | 7.22% and -8.08% |
| O=C(c1ccccc1)N1C[C@@H](c2ccc3c(c2)OCO3)[C@@H]2[C@H]1C1CCN2CC1 | -5.68% | -3.93% | -2.37% | -9.16% | -4.91% |
| CC1=CC2/C=C(\C)CCC(O)C(O)/C=C/C(=O)C23C(=O)NC(CC(C)C)C3C1C (stereo not given) | 1.08% | 12.2% | 4.95% | -2.03% | 2.04% |
| O=C(NCc1ccccc1)N1Cc2ccccc2-n2cccc2C1c1cccs1 (stereo not given) | 9.08% | 0% | -1.96% | -0.058% | 5.02% |
| C[C@]12CC[C@H](O[C@@H]3O[C@H](CO)[C@@H](O)[C@H](O)[C@H]3O)CC1=CC[C@@H]1C2CC[C@]2(C)[C@@H](C3=CC(=O)OC3)CC[C@]12O (stereo not given in full) | 10.2% | 9.05% | 10.2% | -3.79% | 7.52% |
| CN1C(=O)N(c2ccc(C#N)c(C(F)(F)F)c2)C(=O)[C@]1(CO)c1ccccc1 | 6.03% | 7.51% | 9.55% | -2.26% | 7.82% |
| CCC1c2cccn2-c2ccccc2CN1C(=O)NCc1ccccc1 (stereo not given) | -5.7% | 0.245% | -17.8% | -9.23% | -3.24% |
| NCC1(CC(=O)O)CCCCC1 | 5.66% | 10.4% | 7.99% | -5.14% | 4.67% |
| Cc1ccc(C2c3cccn3-c3ccccc3CN2C(=O)NC2CCCC2)cc1 (stereo not given) | 9.1% | 0% | 4.45% | -1.6% | -6.12% |
| CN1CCc2cc3c(cc2[C@H]1[C@@H]1OC(=O)c2c1ccc1c2OCO1)OCO3 | -8.79% | -14.1% | -0.811% | -23.4% | -8.33% |
| C[C@@H]1O[C@@H](O[C@H]2C[C@@H](O)[C@]3(CO)[C@@H]4C(CC[C@]3(O)C2)[C@@]2(O)CC[C@H]([C@@H]3COC(=O)C3)[C@@]2(C)C[C@H]4O)[C@H](O)[C@H](O)[C@H]1O (stereo not given in full) | 3.88% | 12% | 5.45% | -3.4% | 7.58% |
| CC(C)N1CC2CCC(C1)N2S(=O)(=O)C1CC1 | -1.04% | 1.18% | -0.567% | -2.66% | 0.997% |
| COC1CC(O[C@H]2CC[C@@]3(C)C(=CCC4C3C(O)[C@@H](O)[C@]3(C)[C@@H](C(C)=O)CC[C@]43O)C2)OC(C)C1OC1CC(OC)C(OC2OC(C)C(O)C(O)C2O)C(C)O1 (stereo not given in full) | 2.01% | 7.09% | 11.6% | -5.35% | 6.81% |
| COC(=O)CCNC(=O)N1Cc2ccccc2-n2cccc2C1c1ccc(OC)c(OC)c1 (stereo not given) | 7.2% | 3.02% | 0.953% | -4.08% | 1.72% |
| CCc1ccc(C2c3cccn3-c3ccccc3CN2C(=O)Nc2ccc(OC)cc2)cc1 (stereo not given) | 14.6% | 2.5% | 5.78% | 10.3% | 10.2% |
| OCc1cnc[nH]1 | 3.41% | 7.43% | 3.51% | -4.97% | 4.81% |
| O=C(O)CC[N+](=O)[O-] | 4.91% | 12.6% | 4.93% | 1.14% | 9.48% |
| O=C(NCc1ccccc1)N1Cc2ccccc2-n2cccc2C1c1ccc(Cl)cc1 (stereo not given) | 2.21% | 3.1% | 4.29% | 4.37% | 4.87% |
| CCOC(=O)CNC(=O)N1Cc2ccccc2-n2cccc2C1c1ccccc1Cl (stereo not given) | -1.56% | -8.49% | -4.16% | -15.7% | -5.42% |
| CCc1ccc(C2c3cccn3-c3ccccc3CN2C(=O)NCCCOC)cc1 (stereo not given) | 7.03% | 2.53% | 1.35% | -8.2% | 8.26% |
| COC1=CC(=O)O[C@@H](/C=C/c2ccccc2)C1 | -1.4% | -6.97% | 7.51% | -18.2% | 2.8% |
| O=C1CN=C(c2cccc(Br)c2)c2oc3ccccc3c2N1 | -10.8% | 8.46% | -3.54% | -45.4% | -2.47% |
| COc1cc(O)c2c(c1)CCC[C@@H](O)[C@H](O)C(=O)/C=C\C[C@H](C)OC2=O | -20.7% | -8.24% | 0.664% | -13.8% | -8.93% |
| Cc1ccc(NC(=O)N2Cc3ccccc3-n3cccc3C2c2ccccc2)cc1F (stereo not given) | 11.4% | 0% | 8.43% | 6.9% | 7.26% |
| CCN1C[C@@]2(COC)C3[C@@H](OC)C4[C@@H]1C3([C@@H]1C[C@]3(O)[C@H](OC(=O)c5ccccc5)[C@@H]1[C@]4(OC(C)=O)[C@@H](O)[C@@H]3OC)[C@H](OC)C[C@H]2O | 4.88% | 13.3% | 5.94% | -0.325% | 10.5% |
| CCOC(=O)Cc1ccc(NC(=O)N2Cc3ccccc3-n3cccc3C2c2ccccc2C)cc1 (stereo not given) | 9.72% | 0.823% | 2.99% | 3.77% | 6.48% |
| CN1C[C@H](CNC(=O)OCc2ccccc2)C[C@@H]2c3cccc4c3c(cn4C)C[C@H]21 | -32.5% | 5.42% | 5.2% | -10.6% | -35.5% |
| O=C(NC1CCCC1)N1Cc2ccccc2-n2cccc2C1c1ccc(Cl)cc1 (stereo not given) | 0.546% | 3.72% | 5.36% | -2.85% | 10.1% |
